Among all 320,000 compounds or so, about 7,600 (2.4%) were called active. This list was built around the results that the source calls inconclusive (neither active nor inactive); the mix of calls is not that of the screen. The call rests on the fitted dose curve; in most records, active means well fitted activation curve with a large enough effect; inconclusive means small, poorly fitted or top-dose-only effect; inactive means no such curve, though single readings can be large or run the other way. Potencies of inconclusive entries are doubtful fits and often do not repeat.
assay: qHTS Assay for NPC1 Promoter Activators; settings: Huh7 NPC1 promoter luciferase reporter, 24 h; series mostly up to 9.22 µM; activation: at the top concentration; further: nearly all actives have a fitted effect of over 60% in size;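 on activation: reporter is driven by a mutant NPC1 promoter; % of control where 0% means no effect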
Outline: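 Huh7 reporter cells (NPC1 promoter driving luciferase) are dosed with compound for 24 h at 37 °C, 5% CO2; luciferase detection reagent is then added and luminescence measured after 10 min at ambient temperature.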
Potency means the concentration at half of the fitted maximal effect; tags describe the fitted curve by direction and shape.

Potency, inactive:
CC(C)(C)c1onc(OCP(=O)(O)O)c1CC(N)C(=O)O (stereo not drawn)

Potency, inconclusive:
COc1ccc(C2CC(c3c(O)cc(C)oc3=O)=NCCS2)c(OC)c1 (stereo not drawn) 5.62 µM [activator, single point]
CCCc1cc(C(=O)Nc2nnc(C)s2)cs1 5.01 µM [activator, single point]
Fc1ccc(F)c(C2=NNC(=Nc3ccccc3F)SC2)c1 5.62 µM [activator, single point]
O=C(NC(=O)c1ccccc1O)c1ccc(C(F)(F)F)cc1 2.82 µM [activator, partial curve]
CC(C)c1ccc(OCC(=O)NC2=NCCS2)cc1 3.55 µM [activator, partial curve]
Cc1ccc(C(=O)Nc2ccccc2C(=O)NC(C(=O)O)C(C)C)cc1 (stereo not drawn) 3.98 µM [activator, partial curve]
Cc1ccc(-c2cn(-c3ccccc3F)c(=S)[nH]2)cc1 1.58 µM [activator, partial curve]
Brc1ccc(Oc2ncc(CN3CCOCC3)s2)cc1 3.55 µM [activator, single point]
O=C(Nc1ncccc1O)c1ccc(C(=O)c2ccccc2)cc1 3.16 µM [activator, partial curve]
CCCCCCSc1nsc(NC(C)=O)n1 3.16 µM [activator, partial curve]
O=C(NC1CCCCC1)c1cc2ccccc2cc1O 4.47 µM [activator, single point]
CCn1ncc(/C=C/C(=O)c2ccccc2)c1C 3.55 µM [activator, single point]
Cc1ccc(C2=NCN(c3ccc(C(=O)O)cc3)C(=S)N2)cc1 2.82 µM [activator, partial curve]
Cc1c(C(=O)Nc2ccccc2)sc2nc3n(c(=O)c12)CCCCC3 2.82 µM [activator, partial curve]
Cc1cc(/C=N/Nc2ncnc(N)c2[N+](=O)[O-])c(C)n1-c1ccccc1 0.0891 µM [activator, full curve]
O=[N+]([O-])c1ccccc1/C=N/NC1=NCCCCC1 1.58 µM [activator, partial curve]
O=C(Nc1nccs1)c1ccc(COc2ccc(F)cc2)o1 5.62 µM [activator, single point]
c1ccc(-c2csc(Nc3cccnc3)n2)nc1 2.82 µM [activator, partial curve]
c1ccc(-c2ccc3c(c2)NCCN3)cc1 3.55 µM [activator, partial curve]
COc1ccc2nc(NC(=O)C3CCN(C(=O)c4ccco4)CC3)sc2c1 3.55 µM [activator, single point]
CC1CCc2c(sc(NC(=O)c3ccccc3C(=O)O)c2C#N)C1 (stereo not drawn) 3.55 µM [activator, partial curve]
Cc1ccc(S(=O)(=O)Nc2cccc(-c3ccc(N4CCCCCC4)nn3)c2)cc1 5.62 µM [activator, single point]
O=C(Nc1ccc(-c2cn3ccccc3n2)cc1)c1ccc(Cl)cc1 2 µM [activator, partial curve]
Cc1ccccc1Cn1ccc(-c2ccc3c(c2)OCO3)n1 4.47 µM [activator, single point]
O=C(NC1CCCC1)C(c1ccc(F)cc1)N(C(=O)c1csnn1)c1ccccc1 (stereo not drawn) 6.31 µM [activator, single point]
CC1(C)NC(=O)N(CCCCOc2ccc3ccccc3c2Cl)C1=O 1.78 µM [activator, partial curve]
CC(=O)N1N=C2/C(=C/c3ccccc3)CCCC2C1c1ccccc1 (stereo not drawn) 4.47 µM [activator, single point]
COCC(C)NC(=O)c1cc(-c2cccc(OC)c2)on1 (stereo not drawn) 2.51 µM [activator, partial curve]
Nc1ccccc1C(=O)Nc1nccs1 5.62 µM [activator, single point]
O=C(CSc1nnc2ccccn12)Nc1ccc2c(c1)OCCO2 3.55 µM [activator, partial curve]
OCCC1CN(CC2CC2)CCN1Cc1ccc(F)c(F)c1 (stereo not drawn) 1.26 µM [activator, single point]
CCN(CC)CC(=O)Nc1scc2c1c(=O)oc1ccccc12 3.16 µM [activator, single point]
COc1ccc(NC(=O)c2cc(C(C)C)on2)c(OC)c1 2.82 µM [activator, partial curve]
CC(C)(C)C(=O)NC(=S)NCCc1ccccc1 3.55 µM [activator, partial curve]
O=C(CN1C(=O)COc2ccc(S(=O)(=O)N3CCCCC3)cc21)NCc1ccc(Cl)cc1 0.794 µM [activator, single point]
C/C(=N\Nc1nc(C(C)(C)C)cs1)c1ccc(O)cc1 3.16 µM [activator, single point]
Cc1cccnc1NC(=O)Nc1cccc(Cl)c1 5.01 µM [activator, single point]
COC(=O)c1[nH]c2ccc(Cl)cc2c1NC(=O)Oc1ccccc1 3.16 µM [activator, partial curve]
Cc1cc(N)n2ncc(-c3cccc(Br)c3)c2n1 5.62 µM [activator, single point]
Cc1ccc(N2C(=O)CC(SCC(=O)Nc3ccc(S(N)(=O)=O)cc3)C2=O)cc1 (stereo not drawn) 3.98 µM [activator, partial curve]
COc1ccc(C(=O)Nc2nnc(SCC(=O)NCc3ccco3)s2)cc1OC 3.55 µM [activator, partial curve]
OCc1cn(-c2ccccc2)nc1-c1ccc(Br)cc1 2.82 µM [activator, partial curve]
N/C(=N\OC(=O)COc1cc(Cl)c(Cl)cc1Cl)c1ccncc1 2.82 µM [activator, partial curve]

Potency, active:
O=C(NC1=NC2CCCCC2N1)c1ccccc1 (stereo not drawn) 0.398 µM
COc1ccc(NC(=O)OC(C)C)cc1 2 µM
Cc1cc(SCC(=O)c2ccc(Cl)cc2)nc(=O)[nH]1 1.26 µM
O=C(c1ccccc1)c1cnc(Nc2ccccc2Cl)s1 1 µM
COc1ccc(NC(=O)/C=C/c2ccccc2)cn1 3.55 µM
N#C/C(=C\c1ccc(Sc2ccccc2)o1)c1nc2ccccc2[nH]1 2.82 µM
COc1ccc(-c2nc(-c3ccncc3)no2)cc1 0.501 µM
CCOC(=O)C1CCCN(CCC(=O)Nc2cccc(C)c2)C1 (stereo not drawn) 3.55 µM
COCCNc1nc(-c2cc3ccccc3o2)cs1 1.58 µM
Cn1c(SCc2ccccc2F)nnc1-c1ccccn1 3.98 µM
CCC(=O)NC(=S)Nc1ccc(-c2nc3ccccc3s2)cc1 0.447 µM
Cc1nc2ccc(-c3nc4ccccc4o3)cc2[nH]1 0.708 µM
O=C(c1cc(COc2ccc(F)cc2Cl)on1)N1CCSCC1 2.82 µM
CCN(CC)S(=O)(=O)c1cc(C(=O)Nc2cc(C)[nH]n2)ccc1Cl 2.24 µM

activation, inactive:
C/C(=N\NC(=O)c1c(Br)c(C)nn1C)c1cccc(NC(=O)c2ccccc2F)c1 1.67%
CCOc1ccc(-c2nc(CSCC(=O)NCc3ccco3)c(C)o2)cc1 -3.56%
COc1cccc(Cn2cccc(NC(=O)Nc3ccccc3C)c2=O)c1 -6.82%
COc1ccc(C2CC(=O)N(CCCN(C)CCc3ccc(OC)c(OC)c3)C2)cc1 (stereo not drawn) -6.39%
COC(=O)C1CCN(C(=O)COC(=O)CNC(=O)c2ccc(Cl)cc2Cl)CC1 -1.53%
Cc1cc(/C=C(\C#N)C(=O)NCc2ccco2)c(C)[nH]1 2.06%
Cc1ccc(-c2cc(C(=O)N/N=C/c3ccoc3)c3ccccc3n2)cc1 -8.44%
COc1ccccc1Nc1nc(N)nc(CN2CC(C)CC(C)C2)n1 (stereo not drawn) -0.302%
CN(C)S(=O)(=O)Oc1ccc(C(=O)Nc2ccc([N+](=O)[O-])cc2)cc1 -20.6%
CCOC(=O)N1CCC(c2cc(=O)n3[nH]ccc3n2)CC1 4.36%
COc1cc(-n2c(C)nc3cccnc32)c(Cl)cc1C(=O)O 14.3%
CCOC(=S)N/C(=N\S(=O)(=O)c1ccc(C)cc1)c1ccccc1 6%
COc1ccc([N+](=O)[O-])cc1NC(=O)C1CCCN1S(=O)(=O)c1cccs1 (stereo not drawn) -1.92%
CCOc1ccc(-c2nc(CSCC(=O)NCC3CCCO3)c(C)o2)cc1 (stereo not drawn) -0.115%
COc1ccc(NC(=O)C2CCCN2S(=O)(=O)c2cccs2)c([N+](=O)[O-])c1 (stereo not drawn) -0.805%
CCN(c1ccc(NC(=O)COC(=O)C(C)N=C2NS(=O)(=O)c3ccccc32)cc1)C(C)C (stereo not drawn) -0.946%
CCOC(=O)c1ccc2[nH]c(C)cc(=O)c2c1 -2.19%
Cc1ccc(-n2cc(CNCCN3CCOC3=O)c(-c3ccc(F)cc3)n2)cc1 -2.08%
CC(C)C[C@H](NC(=O)N1CC(=O)Nc2ccccc21)C(=O)N[C@H](Cc1c[nH]c2ccccc12)C(=O)O 1.16%
Cc1oc(-c2ccccc2F)nc1CS(=O)CC(=O)NC1CCCCC1 (stereo not drawn) -3%
